Laboratory results: the supplement of paper PMC13380429

What was measured:
Conditions in all cases: 72 h
Caco-2 [1] = assay: drug sensitivity score (DSS) for viability; higher = more toxic; extreme values may be limits of the assay
Vero E6 [2] = assay: as above
HepG2 [3] = assay: as above
U2OS [4] = assay: as above
Calu-3 [5] = assay: as above
Caco-2 [6] = assay: relative viability EC50 (midpoint between 100% and the lowest measured viability); higher = less toxic
Vero E6 [7] = assay: as above
HepG2 [8] = assay: as above
U2OS [9] = assay: as above
Calu-3 [10] = assay: as above
Caco-2 [11] = assay: cell viability relative to DMSO; higher = less toxic
Vero E6 [12] = assay: as above
HepG2 [13] = assay: as above
U2OS [14] = assay: as above
Calu-3 [15] = assay: as above

Cc1c(C(=O)NN2CCCCC2)nn(-c2ccc(Cl)cc2Cl)c1-c1ccc(I)cc1 [AM-251]
Conditions	drug sensitivity score	relative viability EC50 [µM]
Caco-2 [1]	0.8	–
Caco-2 [6]	–	> 10
Calu-3 [5]	0	–
Calu-3 [10]	–	> 10
HepG2 [3]	0	–
HepG2 [8]	–	> 10
U2OS [4]	0	–
U2OS [9]	–	> 10
Vero E6 [2]	0	–
Vero E6 [7]	–	> 10

cell viability [%]
Conditions	Caco-2 [11]	Calu-3 [15]	HepG2 [13]	U2OS [14]	Vero E6 [12]
1 nM	96.8	94.4	99.5	93.7	110
10 nM	110	93.5	104	98.8	102
100 nM	87.8	93.9	114	93.2	104
1000 nM	99.3	96.1	93.4	99.4	98.6
10000 nM	77.6	99.9	91.2	91.9	93.6
